Source: PMC4336329 (PLoS ONE, 2015)
Out of some 310,000 compounds screened, about 2,200 (0.71%) showed an effect of 50% or more. The effect is printed as a negative number. The list shows a part of the results.

Biological target: human ether-à-go-go-related gene (hERG) potassium channel (human, UniProt Q12809)
Assay: primary screen, population patch clamp on CHO cells stably expressing hERG

human ether-à-go-go-related gene (hERG) potassium channel, sequence (Q12809 whole entry, looked up): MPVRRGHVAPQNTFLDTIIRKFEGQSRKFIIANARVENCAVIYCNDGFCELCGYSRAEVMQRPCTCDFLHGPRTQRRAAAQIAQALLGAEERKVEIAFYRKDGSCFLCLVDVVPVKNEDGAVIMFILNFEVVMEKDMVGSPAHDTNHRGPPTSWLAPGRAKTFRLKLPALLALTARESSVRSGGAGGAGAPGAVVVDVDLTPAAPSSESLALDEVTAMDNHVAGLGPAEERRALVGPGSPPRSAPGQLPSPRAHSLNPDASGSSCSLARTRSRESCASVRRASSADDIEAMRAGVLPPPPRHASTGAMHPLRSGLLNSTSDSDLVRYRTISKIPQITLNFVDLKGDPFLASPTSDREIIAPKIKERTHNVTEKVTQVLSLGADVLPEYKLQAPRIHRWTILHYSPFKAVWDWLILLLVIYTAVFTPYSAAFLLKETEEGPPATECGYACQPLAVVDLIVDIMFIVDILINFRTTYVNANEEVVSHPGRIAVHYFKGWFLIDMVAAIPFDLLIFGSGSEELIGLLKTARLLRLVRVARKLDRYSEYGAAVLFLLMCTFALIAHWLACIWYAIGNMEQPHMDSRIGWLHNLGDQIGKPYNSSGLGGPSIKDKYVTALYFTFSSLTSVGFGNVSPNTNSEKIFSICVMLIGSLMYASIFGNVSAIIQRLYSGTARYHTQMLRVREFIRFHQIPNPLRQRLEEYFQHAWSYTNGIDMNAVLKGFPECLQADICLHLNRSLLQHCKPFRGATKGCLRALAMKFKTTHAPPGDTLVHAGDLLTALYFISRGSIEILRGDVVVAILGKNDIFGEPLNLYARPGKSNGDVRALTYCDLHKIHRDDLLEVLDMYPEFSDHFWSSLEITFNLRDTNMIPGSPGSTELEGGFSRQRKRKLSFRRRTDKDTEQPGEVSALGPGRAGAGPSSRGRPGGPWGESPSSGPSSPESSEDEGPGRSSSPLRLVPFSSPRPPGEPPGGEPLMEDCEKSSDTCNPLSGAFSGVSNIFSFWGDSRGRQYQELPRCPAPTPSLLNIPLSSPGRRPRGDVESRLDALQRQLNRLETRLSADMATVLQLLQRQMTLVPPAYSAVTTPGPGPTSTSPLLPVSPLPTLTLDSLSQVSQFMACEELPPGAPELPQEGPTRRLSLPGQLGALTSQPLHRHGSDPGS

Row | Structure (SMILES) | hERG current change (%, negative = inhibition) at 1uM [%]
1 | COc1cccc(OC)c1OCCN(C)C.O=C(O)C(=O)O | -3.49
2 | O=C(COc1cc(F)ccc1[N+](=O)[O-])Nc1ccc2c(c1)OCO2 | 4.29
3 | O=c1c2ccc(Cl)cc2nc2n1CC/C2=C\c1cccc(O)c1 | 7.81
4 | Nc1nc(SCc2ccc(Cl)cc2)[nH]c(=O)c1-c1ccccc1 | 5.31
5 | CCOc1nc(Nc2ccc(F)cc2)nc(N2CCN(c3ccc(OC)cc3)CC2)n1 | -13.7
6 | O=C1C2C3c4ccccc4C(c4ccccc43)[C@@H]2C(=O)N1c1ccccn1 (stereo partly shown) | 8.05
7 | COc1ccc(-n2cc3ccc([N+](=O)[O-])cc3n2)cc1 | 15.4
8 | CC(C)(C)c1ccc(-c2nc3cc(N)ccc3o2)cc1 | 16.6
9 | Cc1cc(C)n(-c2nc(SCC(=O)N3CCCC3)c3c4c(sc3n2)CCCC4)n1 | 0.887
10 | COc1ccc(CCNS(=O)(=O)c2cccc3nsnc23)cc1OC | -2.28
11 | O=C(O)c1cccc(NC(=O)c2ccc(S(=O)(=O)c3ccccc3)cc2)c1 | 5.52
12 | COc1cccc(CN(C)C(=O)c2cc(-c3cccs3)nc3ccccc23)c1 | -0.684
13 | O=C(O)c1cc(O)c2c(c1)C(=O)c1cccc(O)c1C2=O | 14.1
14 | Cc1nnc(SCC(=O)Nc2ccccc2NC(=O)CSc2nnc(C)s2)s1 | 12.2
15 | COc1ccccc1N(C)S(=O)(=O)c1ccc(C(=O)Nc2nccs2)cc1 | -11.4
16 | CC(C)C(C(=O)OCC(=O)c1cccc([N+](=O)[O-])c1)N1C(=O)[C@@H]2[C@H]3CC[C@H](C3)[C@@H]2C1=O (stereo partly shown) | 10.1
17 | Cc1ccc(Nc2nc(N)c3ccccc3n2)cc1Cl.Cl | 16.8
18 | CC(C)C(=O)Nc1nnc(CCc2nnc(NC(=O)C(C)C)s2)s1 | 11.6
19 | Cc1c(Cc2ccc3c(c2)OCO3)sc(NC(=O)C(C)(C)C)c1C#N | 11
20 | Cc1ccc(N2C(=O)[C@@H]3C(c4cccnc4)=NO[C@@H]3C2=O)cc1 | 14.5
21 | CCOC(=O)c1ccccc1OCc1cc(/C=N/n2cnnc2)ccc1OC | 14.8
22 | Cc1ccc(S(=O)(=O)NNC(=O)C2Cc3c(ccc4ccccc34)O2)cc1 (stereo not shown) | 18.1

Row | Structure (SMILES) | hERG current change (%, negative = inhibition) at 1uM [%]
23 | CCc1cc2c(N3CCN(c4ccccc4)CC3)ncnc2s1 | 5.04
24 | Cc1cc(N=NC(=O)c2ccccc2)ccc1O | 12.5
25 | CCCCNC(=S)NNC(=O)c1ccc(Br)o1 | 8.06
26 | Brc1ccc2ncnc(Nc3ccc(N4CCOCC4)cc3)c2c1 | -15.8
27 | CCOC(=O)c1c(CNc2ccncc2)n(C)c2cc(Br)c(O)cc12.Cl | 9.61
28 | Cc1cc(C)n(-c2ccc([N+](=O)[O-])cc2)n1 | 6.72
29 | CC(NS(=O)(=O)c1cn(C)c(=O)n(C)c1=O)c1ccccc1 (stereo not shown) | -0.535
30 | CCc1nn(C(CC)C(=O)NCCCN2CC(C)CC(C)C2)c(=O)c2cc3oc(C)cc3n12 (stereo not shown) | -11.1
31 | COc1ccc(OC)c(/C=N/N=C(\N)c2nonc2N)c1 | 9.32
32 | CN(C(=O)CSc1nc2ccccc2[nH]1)C1CCS(=O)(=O)C1 (stereo not shown) | 14.7
33 | COc1ccccc1C(=O)COC(=O)CN1C(=O)C2CC=CCC2C1=O (stereo not shown) | 27.1
34 | CCOc1cccc(OCCCCN2CCOCC2)c1 | -3.9
35 | CCNS(=O)(=O)c1ccc(CCC(=O)NCc2ccccn2)cc1 | 9.81
36 | CC1=NN(c2ccccc2)C(=O)/C1=C/c1cccs1 | 6.03
37 | CSc1nc2cc(C)nn2c(-c2ccccc2)c1C#N | 11
38 | CCOc1ccc(C2NC(=O)C(C#N)=C(S)N2c2cccc(C)c2)cc1OC (stereo not shown) | 16.8
39 | O=c1cc(-c2ccc(O)cc2)oc2c(C3OCC(O)C(O)C3O)c(O)c(C3OC(CO)C(O)C(O)C3O)c(O)c12 (stereo not shown) | 10.3
40 | O=S(=O)(Nc1cccnc1)c1ccc2c(c1)OCCO2 | 23.4
41 | CCC(C)(C)C1CCC2(CC1)NC(=O)N(CC(=O)NCCOc1ccccc1)C2=O (stereo not shown) | 3.26
42 | Cc1cnc(C(=O)OCC(=O)Nc2ccc(C)c(S(=O)(=O)N(C)C)c2)cn1 | 11.1
43 | CCNC(=O)NC(=O)C(C)OC(=O)c1ccc(SC)cc1OC (stereo not shown) | 11.9
44 | O=C(c1cccc(F)c1)N1CCN(c2cccc(Cl)c2)CC1 | 3.05

Row | Structure (SMILES) | hERG current change (%, negative = inhibition) at 1uM [%]
45 | CCCCC(=O)Nc1cccc(NC(=S)NC(=O)C(C)C)c1 | 14.3
46 | CN1CCN(S(=O)(=O)c2cccc(S(=O)(=O)c3ccc(Cl)c(Cl)c3)c2)CC1 | -0.389
47 | COc1cccc(N2CCN(C(=O)NC3CCCCC3)CC2)c1 | -1.67
48 | O=S(=O)(NCc1cc(-c2ccccc2)no1)c1ccccc1 | 11.1
49 | COc1ccccc1CN(C(=O)CNC(=O)c1ccco1)C(C(=O)NCC1CCCO1)c1ccccc1 (stereo not shown) | 26.5
50 | Cn1c(SCC(=O)N2CCN(c3ccccc3)CC2)nnc1-c1ccncc1 | -2.89
51 | CCOC(=O)c1cccc(NC(=O)CN(c2ccc(OC)cc2)S(=O)(=O)c2c(C)noc2C)c1 | -10
52 | CC(=O)c1cccc(NC(=S)Nc2ccn(Cc3cccc4ccccc34)n2)c1 | 5.35
53 | O=C(Nc1nnc(S(=O)(=O)N2CCCCC2)s1)c1cccc(Br)c1 | 5.53
54 | CC[C@@H]1C(=O)OC[C@@H]1Cc1cncn1C.Cl | -1.02
55 | O=C(CSC1=NCCN1)NC(c1ccccc1)c1ccccc1 | 6.11
56 | COc1cccc(-c2nnc(-c3ccc(C(F)(F)F)cc3)o2)c1OC | 4.21
57 | CC1CCC(C(C)C)C(OC(=O)C[n+]2cccc(C(N)=O)c2)C1.[Cl-] (stereo not shown) | 10
58 | COc1cc(C2C(C#N)=C(N)Oc3cc4c(cc32)OCO4)cc(OC)c1OC (stereo not shown) | 11.4
59 | CCC(OC(=O)c1cccs1)C(=O)NC1CCCCC1 (stereo not shown) | -3.56
60 | COc1ccc2[nH]c(=O)c(CN(Cc3nnnn3Cc3ccccc3)CC3CCCO3)cc2c1 (stereo not shown) | 7.22
61 | CN(C)Cc1nc2ccccc2c(=O)n1Cc1nc(C(C)(C)C)cs1 | 1.55
62 | CCCc1nnc(NC(=O)CCCN2C(=O)c3ccccc3C2=O)s1 | 9.34
63 | COc1ccccc1NC(=O)CSc1nnc(Cc2cccn2C)n1-c1ccc(F)cc1 | -4.57
64 | Cc1cccc(/C=N/NC(=O)Cn2nnnc2N)n1 | 19.8
65 | Cc1ccc(S(=O)(=O)NCc2cn3c(C)csc3n2)cc1 | 8.67
66 | Cc1cc(N2C(=O)CCC2=O)n(-c2ccccc2)n1 | 3.09

Row | Structure (SMILES) | hERG current change (%, negative = inhibition) at 1uM [%]
67 | O=C(NCCCN1CCOCC1)c1ccc(CNS(=O)(=O)c2ccc(F)cc2)cc1 | 15.2
68 | O=C(c1sc2cc(Cl)ccc2c1Cl)N1CCN(CCc2ccccn2)CC1 | -36.6
69 | Cc1csc2nc(COC(=O)c3cccc(N(C)C)c3)cc(=O)n12 | -2.57
70 | C=CCn1c(SCC(C)=O)nnc1-c1ccc2ncccc2c1 | 15.6
71 | CCc1nnc(NS(=O)(=O)c2ccc(NS(=O)(=O)c3ccccc3)cc2)s1 | 0.102
72 | N#Cc1c(N)nc(N2CCCC2)c(C#N)c1-c1ccc(Cl)cc1 | 4.22
73 | CCOC(=O)c1nnc(-c2ccccc2)nc1NCc1ccccc1 | -2.03
74 | O=C(Nc1ccc(O)c(C(=O)O)c1)Oc1ccccc1 | 14.6
75 | CC(C(=O)N1CCCCC1)N1CCN(S(=O)(=O)c2ccc(Cl)cc2)CC1.O=C(O)C(=O)O (stereo not shown) | 6.84
76 | CC(C)C(=O)Nc1cccc(C(=O)Nc2nnc(C(C)(C)C)s2)c1 | -4.54
77 | CCOC(=O)N1CCN(CCc2ccccc2)CC1 | 3.28
78 | O=C(COc1ccc(F)cc1)NCC1(N2CCOCC2)CCCCC1 | -3.47
79 | CCOC(=O)c1ccc(NC(=O)c2nn(C)cc2Br)cc1 | 10.4
80 | COC(=O)C1=C(C)NC2=C(C(=O)CCC2)C1c1ccc(-c2ccsc2C(=O)OC)o1 (stereo not shown) | 13.1
81 | Cc1ccccc1C(=O)N1CCC(C(=O)N(CC(C)C)c2c(N)n(CC(C)C)c(=O)[nH]c2=O)CC1 | 8.46
82 | CC(C(=O)Nc1ccc(F)cc1Cl)N1CCN(S(=O)(=O)c2cccs2)CC1 (stereo not shown) | 0.389
83 | COc1cccc(N2CCN(C(=O)c3cccnc3)CC2)c1 | 9.47
84 | CC(C)[C@H](NC(=O)c1ccc(Br)cc1)C(=O)NC1CCCCC1 | 11.7
85 | Cc1ccc(S(=O)(=O)CC2CSc3nc(N)cc(=O)n32)cc1 (stereo not shown) | 3.32
86 | COc1cc2c(cc1OC)CN(C(=O)c1ccc(OC)c(S(=O)(=O)N3CCOCC3)c1)CC2 | 7.1
87 | O=C(Nc1ccc(Cc2ccncc2)cc1)c1ccc([N+](=O)[O-])o1 | -1.3
88 | O=C(NCc1cccnc1)/C(=C/c1ccccc1)NC(=O)c1ccccc1 | -23.3
